From PubChem BioAssay AID1963576 (National Center for Advancing Translational Sciences (NCATS), 2024) come the findings set out here.

Out of some 46,000 compounds screened, about 60 (0.1%) were called active. Inconclusive results (about 3%) are left out. Calls come from the whole dose curve; as a rule, active = well fitted inhibition curve with a large enough effect; inconclusive = small, poorly fitted or top-dose-only effect; inactive = no such curve, though single readings can be large or run the other way. The list shows a part of the results.

The assay in a line: Primary qHTS assay for Inhibitors of ovarian cancer metastasis using an organotypic tumor microenvironment (TME) model.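 For activity change, negative = inhibition: plate controls were DMSO wells for no effect and tomatine positive control wells for full effect.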 Note: nearly all actives have a fitted effect of over 65% in size. The conditions noted are these: SKOV3ip1-GFP adhesion/invasion on 3D omental model, fluorescence; series mostly up to 45.8 µM; activity change, negative = inhibition: at the top concentration. The essentials:
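A 3D layer of primary human omental fibroblasts, mesothelial cells, fibronectin and collagen I, grown 48 hr, received SKOV3ip1-GFP cells in serum-free medium plus compounds at 0.36-46 umol/L. After 2 hr RT and 16 hr 37 C, fixed adherent GFP cells were counted; normalized to DMSO and tomatine.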
With `Cc1ccc(SCC(=O)Nc2ccc3oc(-c4cccc(Cl)c4)nc3c2)cc1`, the “activity change, negative = inhibition” value was inactive: -14.6%.

Turning to `Cc1cc(-c2ccc(C)c(S(=O)(=O)NCC3CCN(Cc4ccccc4F)CC3)c2)on1`, the outcome was inactive. Same read-out and setting: the result for `Cc1ccc(C(c2c(O)cc(C)n(Cc3ccco3)c2=O)N2CCC(C)CC2)cc1` (stereo not drawn) reads “inactive”; that for `COc1ccc(OC)c(CNCc2c(C(=O)O)n(Cc3cccc(F)c3)c3cc(OC)ccc23)c1`, “inactive”. As to `COc1cc2c(cc1Cc1cccc(Cl)c1F)c(=O)c(C(=O)O)cn2[C@H](CO)C(C)C`, the “activity change, negative = inhibition” value is inactive: -13.3%. Still for that read-out and setting: next, `O=C(Nc1sc2c(c1C(=O)NCC1CCCO1)CCCC2)c1cc(=O)c2ccccc2o1` (stereo not drawn): inactive: 1.9%; `O=C(CCn1c(=O)c2sccc2n(Cc2ccc(F)cc2Cl)c1=O)NCc1ccc2c(c1)OCO2`: inactive: -2.39%; `Cc1ccc(-c2nc3ccccc3o2)cc1NC(=O)Cc1ccc(Cl)cc1`: inactive: 9.09%. Consider `Cc1cc(C)cc(NC(=O)C2CC(=O)N(c3ccccc3)C2)c1` (stereo not drawn), for which the compound was called inactive.

With `Cc1ccccc1CCNC(=O)c1ccc2c(c1)nc1n2CCCCC1`, the “activity change, negative = inhibition” value is inactive: -27.9%. Still for that read-out and setting: the result for `COc1ccc2cc3[n+](cc2c1OC)CCc1cc2c(cc1-3)OCO2` reads inactive: -7.21%. For the compound `Cc1ccc2c(c1)c1c(c(=O)n(Cc3ccccc3)c(=O)n1CC(=O)Nc1ccccc1F)n2C`, the outcome was inactive.

`CCOC(=O)c1cccc(NC(=O)c2cnc3sc(N4CCOCC4)nn3c2=O)c1`: the “activity change, negative = inhibition” value was inactive: -3.21%. Regarding `Cc1cc(OCCCc2c(C(=O)O)n(Cc3cccnc3)c3c(-c4c(COc5ccc(N6CCN([S+](C)(=O)[O-])CC6)cc5)nn(C)c4C)cccc23)cc(C)c1Cl`, the “activity change, negative = inhibition” value is inactive: -2.51%. Take `COC(=O)c1ccccc1NC(=O)CSc1nc(C)c(Cl)c(C)c1C#N`: the “activity change, negative = inhibition” value was inactive: 0.673%. With `Cc1ccc(-c2cc(C(=O)Oc3ccc(C#N)cc3)no2)cc1C`, the outcome was inactive. As to `CC(C)NC(=O)CN1C(=O)CCn2nc(-c3cn(C)c4ccccc34)cc21`, the “activity change, negative = inhibition” value is inactive: -2.3%. As for `COc1ccc(Cn2c(C(=O)O)c(CNCc3ccc(SC)cc3)c3ccc(OC)cc32)cc1`, the call was inactive. Take `Cc1ccccc1Cn1c(=O)n(-c2ccc(Cl)cc2)c(=O)c2c3c(sc21)CCCC3`: the “activity change, negative = inhibition” value was inactive: -12.6%.

On to `CCc1ccc(NS(=O)(=O)c2[nH]ncc2C(=O)OC)cc1`, for which the result was inactive.

As to `CCC(C)NC(=O)c1sc2nc(C)c(C(=O)Nc3ccc(C)cc3C)c(-c3ccc(NC(C)=O)cc3)c2c1N` (stereo not drawn), the “activity change, negative = inhibition” value was inactive: -1.39%. On to `COCCNC(=O)CCCn1c(SCC(=O)NCc2ccc(C)cc2)nc2c(sc3ccccc32)c1=O`, for which the “activity change, negative = inhibition” value is inactive: 1.58%.

With `COCCNc1ccc2cc(S(=O)(=O)N3CCCCC3)ccc2n1`, the “activity change, negative = inhibition” value was inactive: 8.4%.

As for `Cc1ccc2nc(NC(=O)CSc3nccn3Cc3ccc(F)cc3)sc2c1`, the “activity change, negative = inhibition” value is inactive: -20.2%. On the same count and under the same terms, the result for `O=C(O)c1ccc(Cn2c(SCc3ccc(F)cc3)nc3ccncc32)cc1` reads inactive: 8.16%. Consider `COc1cccc(N2CCN(C(=O)CN3CCSc4ccccc43)CC2)c1`, for which the compound was classed as inactive. On the same count and under the same terms, the result for `CCCS(=O)(=O)N1CCC(C(=O)NCCOC)CC1` reads “inactive”.

As to `Cc1ccccc1NC(=O)c1sc2nc3c(cc2c1N)CN(Cc1ccccc1)CC3`, the “activity change, negative = inhibition” value is inactive: -11.7%. On to `Cc1cc(F)ccc1NC(=O)C1CCC(CNS(=O)(=O)c2ccc3c(c2)CCCC(=O)N3)CC1` (stereo not drawn), for which the call was inactive. Regarding `COc1ccc(OC)c(S(=O)(=O)NCC(c2cccs2)S(=O)(=O)c2ccc(F)cc2)c1` (stereo not drawn), the “activity change, negative = inhibition” value is inactive: -2.01%. Still for that read-out and setting: the result for `Cc1ccc(-c2noc(-c3nnn(-c4cccc(C(F)(F)F)c4)c3N)n2)cc1` reads inactive: -5.68%; that for `COc1ccc(-c2nn(-c3ccccc3)cc2C2NC(=O)NC(C)=C2C(=O)OC(C)C)cc1OC` (stereo not drawn), inactive: -1.91%; that for `COc1ccccc1CNc1ncnc2c1cnn2-c1ccc(C)cc1`, inactive: -1.52%. As to `COc1ccc2c(c1)c1c(c(=O)n(-c3cccc(C)c3)c(=O)n1Cc1cccc(Cl)c1)n2C`, the “activity change, negative = inhibition” value was inactive: -16.2%. Same read-out and setting: next, `O=C(c1cc2c(=O)oc3ccccc3c2s1)N1CCN(c2ccccc2)CC1`: inactive: 24.6%. For the compound `O=C(Nc1cc2c(cc1C(=O)c1ccccc1Br)OCCO2)c1cccc(Cl)c1`, the outcome was inactive.

For `Cc1ccc(-n2nc(C)c3c(C)cc(=O)n(CC(=O)Nc4cccc(C)c4C)c32)cc1`, the “activity change, negative = inhibition” value is inactive: -21.8%. Same read-out and setting: next, `Cc1nc(-n2nc(C)c(CCC(C)C)c2C)sc1C(=O)Nc1ccc(Cl)cc1`: inactive: -14.8%; `O=S(=O)(c1ccc2nc(N3CCN(c4ccccc4F)CC3)ccc2c1)N1CCCCC1`: inactive: 0.646%. On to `COc1ccc(N2C(=O)CSC23C(=O)N(Cc2cccc(F)c2)c2ccccc23)cc1Cl` (stereo not drawn), for which the call was inactive. Take `Cc1ccc(CN2CCCn3nc(C(=O)NCCc4cccc(C)c4)cc3C2=O)cc1`: the “activity change, negative = inhibition” value is inactive: -16.2%. Consider `Cc1ccc(NC(=O)c2ccc(=O)n(Cc3ccccc3C)c2)c(C)c1`, for which the result was inactive. `CCc1nc(SC)ncc1C(=O)N1CCN(c2cc(C)ccc2C)CC1`: the “activity change, negative = inhibition” value is inactive: -10.5%. Regarding `CCOC(=O)c1c(S(=O)(=O)N2CCCC(C(=O)NCc3ccccc3OC)C2)c(C)n(C)c1C` (stereo not drawn), the compound was classed as inactive. In the case of `Cc1ccc(CNC(=O)c2ccc3c(O)c(S(=O)(=O)c4ccc(Cl)cc4)c(=O)[nH]c3c2)cc1`, the “activity change, negative = inhibition” value was inactive: 1.1%. Regarding `COc1ccc(CCNCc2ccc3c(c2)n(C)c(=O)n3C)cc1OC`, the “activity change, negative = inhibition” value is inactive: 1.12%.

For `Cc1ccc(CN2CCCn3nc(C(=O)NCCc4ccccc4Cl)cc3C2=O)cc1`, the “activity change, negative = inhibition” value was inactive: 7.15%. With `Cc1nn(C)c2c1c(-c1ccccc1)cc(=O)n2CC(=O)NC(C)C`, the compound was classed as inactive.
